According to the supplement of paper PMC8728848:
The other results are listed elsewhere or left out.

Tests used:
Assay in all cases: glycan array binding signal (z-score within array); higher = stronger binding
Conditions in all cases: glycan notation: IUPAC condensed, linker removed
[1] = molecular target: Fuc(a1-3)[Gal(b1-4)]Glc6S
How it was run: (§1)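 The binding signal is a Z-score computed within each array and averaged over linkers. Arrays of the same protein sequence at different concentrations or buffers were also averaged together. Data originate from 3228 arrays in the Consortium for Functional Glycomics database, kept only where the protein sequence was available.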

[2] = molecular target: Fuc(a1-3)[Gal(b1-4)]GlcNAc
How it was run: as §1

[3] = molecular target: Fuc(a1-3)[Gal(b1-4)]GlcNAc(b1-2)Man
How it was run: as §1

[4] = molecular target: Fuc(a1-3)[Gal(b1-4)]GlcNAc(b1-2)Man(a1-3)[Fuc(a1-3)[Gal(b1-4)]GlcNAc(b1-2)Man(a1-6)]Man(b1-4)GlcNAc(b1-4)GlcNAc
How it was run: as §1

[5] = molecular target: Fuc(a1-3)[Gal(b1-4)]GlcNAc(b1-2)Man(a1-3)[Fuc(a1-3)[Gal(b1-4)]GlcNAc(b1-2)Man(a1-6)]Man(b1-4)GlcNAc(b1-4)[Fuc(a1-6)]GlcNAc
How it was run: as §1

[6] = molecular target: Fuc(a1-3)[Gal(b1-4)]GlcNAc(b1-3)Gal(b1-3)[Fuc(a1-4)]GlcNAc
How it was run: as §1

[7] = molecular target: Fuc(a1-3)[Gal(b1-4)]GlcNAc(b1-3)GalNAc
How it was run: as §1

[8] = molecular target: Fuc(a1-3)[Gal(b1-4)]GlcNAc(b1-4)Gal(b1-4)[Fuc(a1-3)]GlcNAc
How it was run: as §1

[9] = molecular target: Fuc(a1-3)[Gal(b1-4)]GlcNAc(b1-4)Gal(b1-4)[Fuc(a1-3)]GlcNAc(b1-4)Gal(b1-4)[Fuc(a1-3)]GlcNAc
How it was run: as §1

[10] = molecular target: Fuc(a1-3)[Gal(b1-4)]GlcNAc(b1-6)GalNAc
How it was run: as §1

[11] = molecular target: Fuc(a1-3)[Gal(b1-4)]GlcNAc(b1-6)[Gal(b1-3)GlcNAc(b1-3)]Gal(b1-4)Glc
How it was run: as §1

[12] = molecular target: Fuc(a1-3)[Gal(b1-4)]GlcNAc6S
How it was run: as §1

[13] = molecular target: Fuc(a1-3)[Gal3S(b1-4)]Glc
How it was run: as §1

[14] = molecular target: Fuc(a1-3)[Gal3S(b1-4)]GlcNAc
How it was run: as §1

[15] = molecular target: Fuc(a1-3)[Gal3S(b1-4)]GlcNAc6S
How it was run: as §1

[16] = molecular target: Fuc(a1-3)[GalNAc(b1-4)]GlcNAc
How it was run: as §1

[17] = molecular target: Fuc(a1-3)[GalNAc(b1-4)]GlcNAc6S
How it was run: as §1

Fuc(a1-4)GlcNAc = molecular target: Fuc(a1-4)GlcNAc
How it was run: as §1

Fuc(b1-3)GlcNAc = molecular target: Fuc(b1-3)GlcNAc
How it was run: as §1

Gal(a1-2)Gal = molecular target: Gal(a1-2)Gal
How it was run: as §1

Gal(a1-3)Gal = molecular target: Gal(a1-3)Gal
How it was run: as §1

Gal(a1-3)Gal(b1-3)GlcNAc = molecular target: Gal(a1-3)Gal(b1-3)GlcNAc
How it was run: as §1

[18] = molecular target: Gal(a1-3)Gal(b1-3)GlcNAc(b1-2)Man
How it was run: as §1

[19] = molecular target: Gal(a1-3)Gal(b1-3)GlcNAc(b1-2)Man(a1-3)[Gal(a1-3)Gal(b1-3)GlcNAc(b1-2)Man(a1-6)]Man(b1-4)GlcNAc(b1-4)GlcNAc
How it was run: as §1

[20] = molecular target: Gal(a1-3)Gal(b1-3)GlcNAc(b1-3)GalNAc
How it was run: as §1

[21] = molecular target: Gal(a1-3)Gal(b1-3)GlcNAc(b1-6)GalNAc
How it was run: as §1

[22] = molecular target: Gal(a1-3)Gal(b1-3)[Fuc(a1-4)]GlcNAc(b1-2)Man(a1-3)[Gal(a1-3)Gal(b1-3)[Fuc(a1-4)]GlcNAc(b1-2)Man(a1-6)]Man(b1-4)GlcNAc(b1-4)GlcNAc
How it was run: as §1

Gal(a1-3)Gal(b1-4)Glc = molecular target: Gal(a1-3)Gal(b1-4)Glc
How it was run: as §1

Gal(a1-3)Gal(b1-4)GlcNAc = molecular target: Gal(a1-3)Gal(b1-4)GlcNAc
How it was run: as §1

[23] = molecular target: Gal(a1-3)Gal(b1-4)GlcNAc(b1-2)Man
How it was run: as §1

B1: Pbx2 (Cryptococcus neoformans) (protein)
chain: AVSPLPSSTELVFYSQKRRRRRICSTATGSLSTPDPTRMTSDPYKRVGMRFSSVPRLLITFLSLLLLVSAAPPCVRFADYDSINQMFIDGGPGTKVLLCPNRLYRLSGPIIFTAADQEIATYGYPTGSERAVLRVEGRNTATAIQGDCRRCARVSVKNLVVDGNRKKLGRMRDFQLATGLVVLGGNEGQSIQNSWIKNPRGFTAIHIREGDKLQCSGARVEKNEIGPVGEEYDPEKDGDDPEMSPLGRPLADGVSIACRDSFIRDNTFRDNTDAAIVVYCSPGTLIHANHIFAQSLSAMAGILMVDSTPFNGDYTGTVVRSNIIDAVSRTIRVGIGIGPTVWSDDTETILTGGSVIGNGLKGRYMGYGIAAAGLKQWTIKDNWDEAKHEGRKSARCFDEPVNPDPIGLLYNRPTMEDCTVQSGFADHDFQYLVCIDGLYDKTNPPKHDPAPLAHDPSPTNAQEDNTVQQDGGDSKSKSIEQPREASDIEAEPSVEKMFSTGSEMMDDVLEHSHQRMHEVIDHLSRRIDILGAASAGKGSGDSKISEVLDPAMSSHLEKLQRKIEHLEFSLRSQIETAIQLRSAIQGWDQEMALVTDWEYDILLDVRHKLELSSYPHDQPLDPRLMRGQSYLNNEAVLVDDHSHPSLEGENLRAMSDRARLNANEEA
glycan array binding signal (z-score) [1]: -0.285
glycan array binding signal (z-score) [2]: -0.094
glycan array binding signal (z-score) [3]: -0.041
glycan array binding signal (z-score) [4]: 0.271
glycan array binding signal (z-score) [5]: -0.34
glycan array binding signal (z-score) [6]: -0.184
glycan array binding signal (z-score) [7]: 0.013
glycan array binding signal (z-score) [8]: -0.139
glycan array binding signal (z-score) [9]: -0.366
glycan array binding signal (z-score) [10]: 0.137
glycan array binding signal (z-score) [11]: -0.361
glycan array binding signal (z-score) [12]: -0.641
glycan array binding signal (z-score) [13]: -0.224
glycan array binding signal (z-score) [14]: 0.057
glycan array binding signal (z-score) [15]: 0.679
glycan array binding signal (z-score) [16]: -0.291
glycan array binding signal (z-score) [17]: -0.186
glycan array binding signal (z-score) (Fuc(a1-4)GlcNAc): -0.284
glycan array binding signal (z-score) (Fuc(b1-3)GlcNAc): -0.524
glycan array binding signal (z-score) (Gal(a1-2)Gal): -0.104
glycan array binding signal (z-score) (Gal(a1-3)Gal): 0.196
glycan array binding signal (z-score) (Gal(a1-3)Gal(b1-3)GlcNAc): -0.038
glycan array binding signal (z-score) [18]: -0.335
glycan array binding signal (z-score) [19]: 0.261
glycan array binding signal (z-score) [20]: 0.123
glycan array binding signal (z-score) [21]: 0.063
glycan array binding signal (z-score) [22]: -0.392
glycan array binding signal (z-score) (Gal(a1-3)Gal(b1-4)Glc): 0.082
glycan array binding signal (z-score) (Gal(a1-3)Gal(b1-4)GlcNAc): -0.346
glycan array binding signal (z-score) [23]: -0.054
